Drawing on the antibiotic and cytotoxicity screens of Wong et al. (2023), this text covers cytotoxicity call and growth inhibition call for 27 molecules.

The structures appear in SMILES notation. This is one part of the list.

The subject of assay [1] is HSkMC (human skeletal muscle cells). The assay is described as follows: cytotoxicity call (relative viability < 0.9). The note with it: 10 µM.
In assay [2] the test system is HepG2. The assay is described as follows: cytotoxicity call (relative viability < 0.9). The settings on record: 10 µM.
The subject of assay [3] is S. aureus RN4220. Briefly: growth inhibition call (relative growth <= 0.2). The note with it: 50 µM.

Regarding `O=C(CCCCCCC(=O)Nc1ccc([C@H]2O[C@@H](CSc3nc(-c4ccccc4)c(-c4ccccc4)o3)C[C@H](c3ccc([N+](=O)[O-])cc3)O2)cc1)NO`, the cytotoxicity call in assay [1] is “inactive”. Further, in assay [2], the cytotoxicity call is “active”. In assay [3], the growth inhibition call was “inactive”.
Take `C=c1cc(C)ccc1=C1NN=C(NC(=O)CC)O1`: the cytotoxicity call in assay [1] and in assay [2] was “inactive” throughout. Besides, in assay [3], the growth inhibition call is “inactive”.
With `COc1ccc(S(=O)(=O)Nc2cccc3c2O[C@@H](CN(C)S(=O)(=O)c2cn(C)cn2)[C@H](C)CN([C@H](C)CO)C3=O)cc1`, the cytotoxicity call in assay [1] and in assay [2] was “inactive” throughout. Also, the growth inhibition call in assay [3] was “inactive”.
`C[C@H]1CN([C@@H](C)CO)C(=O)c2cc(NC(=O)CCC(F)(F)F)ccc2O[C@@H]1CN(C)C(=O)Nc1cccc2ccccc12`: the cytotoxicity call in assay [1] and in assay [2] was “inactive” in each case. The growth inhibition call in assay [3] was “inactive”.
Turning to `C[C@@H]1CN([C@H](C)CO)C(=O)c2cc(C#CC3(O)CCCC3)cnc2O[C@H]1CN(C)S(=O)(=O)c1ccccc1`, the cytotoxicity call in assay [1] and in assay [2] was “inactive” each time. Besides, the growth inhibition call in assay [3] is “inactive”.
Regarding `Cc1ccc(S(=O)(=O)N(C)C[C@H]2Oc3ccc(NC(=O)Cn4cnnn4)cc3CC(=O)N([C@H](C)CO)C[C@H]2C)cc1`, the cytotoxicity call in assay [1] and in assay [2] was “inactive” each time. In addition, the growth inhibition call in assay [3] was “inactive”.
In the case of `C[C@@H]1CCCCO[C@@H](CN(C)C(=O)Nc2ccc(F)cc2)[C@@H](C)CN([C@H](C)CO)C(=O)c2cc(NS(=O)(=O)c3ccccc3)ccc2O1`, the cytotoxicity call in assay [1] and in assay [2] was “inactive” in each case. For the same molecule, in assay [3], the growth inhibition call was “inactive”.
In the case of `COCC(=O)N(C)C[C@@H]1Oc2cc(-c3ccc(OC)cc3)ccc2S(=O)(=O)N([C@H](C)CO)C[C@H]1C`, the cytotoxicity call in assay [1] and in assay [2] was “inactive” each time. Besides, in assay [3], the growth inhibition call was “inactive”.
Turning to `COCC(=O)Nc1ccc2c(c1)C(=O)N(C)C[C@H](OC)[C@H](C)CN(C(=O)Cc1ccccn1)[C@H](C)CO2`, the cytotoxicity call in assay [1] and in assay [2] was “inactive” in each case. For the same molecule, the growth inhibition call in assay [3] is “inactive”.
With `C[C@@H]1CN([C@@H](C)CO)C(=O)c2cc(NC(=O)Nc3cccc4ccccc34)ccc2O[C@H]1CN(C)S(=O)(=O)c1ccccc1`, the cytotoxicity call in assay [1] and in assay [2] was “inactive” in each case. In assay [3], the growth inhibition call is “inactive”.
Turning to `C[C@@H]1CCCCO[C@H](CN(C)C(=O)NC2CCCCC2)[C@H](C)CN([C@@H](C)CO)C(=O)c2cc(NC(=O)NC3CCCCC3)ccc2O1`, the cytotoxicity call in assay [1] and in assay [2] was “inactive” in each case. Further, in assay [3], the growth inhibition call was “inactive”.
On to `C[C@H](CO)N1C[C@H](C)[C@H](CN(C)Cc2ccncc2)OCCCC[C@H](C)Oc2ccc(NC(=O)Nc3cccc4ccccc34)cc2C1=O`, for which the cytotoxicity call in assay [1] and in assay [2] was “inactive” in each case. Besides, in assay [3], the growth inhibition call is “inactive”.
As to `CO[C@H]1CN(C)C(=O)c2cc(NC(=O)c3ccc(F)cc3)ccc2OC[C@@H](C)N(C(=O)CN(C)C)C[C@@H]1C`, the cytotoxicity call in assay [1] and in assay [2] was “inactive” in each case. For the same molecule, the growth inhibition call in assay [3] is “inactive”.
For `OC[C@@H](O)[C@@H](O)[C@@H](O)/C=N/Nc1ccccc1`, the cytotoxicity call in assay [1] and in assay [2] was “inactive” throughout. In addition, in assay [3], the growth inhibition call was “inactive”.
`Nc1ccc(C(=O)O)c(O)c1`: the cytotoxicity call in assay [1] and in assay [2] was “inactive” in each case. Moreover, the growth inhibition call in assay [3] is “inactive”.
As to `COc1ccccc1CNC(=O)C[C@@H]1C[C@@H]2c3cc(NC(=O)Cc4ccncc4)ccc3O[C@@H]2[C@@H](CO)O1`, the cytotoxicity call in assay [1] and in assay [2] was “inactive” throughout. Further, the growth inhibition call in assay [3] is “inactive”.
Regarding `C[C@H](CO)N1C[C@H](C)[C@H](CN(C)S(=O)(=O)c2cn(C)cn2)Oc2ccc(NC(=O)C3CC3)cc2CC1=O`, the cytotoxicity call in assay [1] and in assay [2] was “inactive” each time. Moreover, the growth inhibition call in assay [3] was “inactive”.
For `CC(C)NC(=O)N[C@H]1CC[C@@H](CCN)O[C@H]1CO`, the cytotoxicity call in assay [1] and in assay [2] was “inactive” in each case. Besides, in assay [3], the growth inhibition call is “inactive”.
Regarding `C=c1ccc(S(=O)(=O)N2CCCC2)cc1=C1NN=C2c3ccccc3C(C)=NN21`, the cytotoxicity call in assay [1] and in assay [2] was “inactive” throughout. Further, the growth inhibition call in assay [3] was “inactive”.
As to `Clc1ccc(-c2cccs2)nn1`, the cytotoxicity call in assay [1] and in assay [2] was “inactive” each time. Also, the growth inhibition call in assay [3] was “inactive”.
For the molecule `COc1ccc(NC(=O)Nc2ccc3c(c2)C(=O)N([C@@H](C)CO)C[C@H](C)[C@@H](CN(C)C(=O)Cc2ccccc2)OCCCC[C@H](C)O3)cc1`, the cytotoxicity call in assay [1] and in assay [2] was “inactive” each time. Besides, the growth inhibition call in assay [3] was “inactive”.
For the molecule `CC(=O)N(C)C[C@@H]1Oc2ncc(C#C[C@H](C)O)cc2C(=O)N([C@H](C)CO)C[C@@H]1C`, the cytotoxicity call in assay [1] and in assay [2] was “inactive” in each case. Also, the growth inhibition call in assay [3] is “inactive”.
Regarding `C[C@@H]1CCCCO[C@H](CN(C)Cc2ccccc2)[C@@H](C)CN([C@H](C)CO)C(=O)c2cc(NC(=O)CCC(F)(F)F)ccc2O1`, the cytotoxicity call in assay [1] and in assay [2] was “inactive” in each case. The growth inhibition call in assay [3] is “inactive”.
`O=C(Nc1nc(OCCN2CCCC2=O)cnc1-c1cc(Cl)cc(Cl)c1)c1cc2ccccc2s1`: the cytotoxicity call in assay [1] and in assay [2] was “inactive” in each case. Besides, the growth inhibition call in assay [3] was “inactive”.
In the case of `C[C@@H]1CN([C@H](C)CO)C(=O)c2cc(NS(=O)(=O)c3ccc(F)cc3)ccc2O[C@@H]1CN(C)S(=O)(=O)c1cn(C)cn1`, the cytotoxicity call in assay [1] and in assay [2] was “inactive” each time. The growth inhibition call in assay [3] was “inactive”.
Take `COc1ccc([C@@H]([C@H](Cc2ccccc2)OC(C)=O)N2C[C@H]3C(=NO[C@@H]3[C@@H](OC(C)=O)c3ccccc3)[C@@H]2Cc2ccccc2)cc1`: the cytotoxicity call in assay [1] and in assay [2] was “inactive” throughout. In addition, the growth inhibition call in assay [3] is “inactive”.
For the molecule `Cc1noc(C)c1NC(=O)Nc1ccc2c(c1)C(=O)N([C@H](C)CO)C[C@H](C)[C@H](CN(C)C(=O)Nc1ccc3c(c1)OCO3)OCCCC[C@H](C)O2`, the cytotoxicity call in assay [1] and in assay [2] was “inactive” each time. For the same molecule, the growth inhibition call in assay [3] was “inactive”.
